Laboratory results as given in PubChem BioAssay AID2060609 (Molecular Pharmacology Branch, DTP, NCI, 2025).
A number of entries come with more than one value. They are shown here; other results are not. The source may hold further records. Values given together are repeats (runs, samples, wells, individuals or studies). Signs of the kind (2×) stand for listed records that agree.

System: 855422-203-R-J1-PDC complex spheroids, viability
Test: Anticancer human tumor 855422-203-R-J1-PDC patient-derived bladder carcinoma cell line growth inhibition [CLK]
Conditions: stronger effect = lower value
Source text: A high-throughput screen of multi-cell type tumor spheroids was designed to identify active combinations of […] and targeted small molecules. Complex spheroids include a stromal component modeled by human endothelial cells (HUVEC) and fibroblasts modeled by human mesenchymal stem cells (MSCs). The concentration ranges selected for each drug and investigational agent were based upon clinically achievable concentrations if the clinical Cmax of the agent was known.
Compounds. The drugs and investigational agents: cirtuvivint (SM08502; NSC835563), CC-671 (NSC850746), vemurafenib (NSC761431), tapotoclax (NSC804041), sotorasib (NSC818433), adagrasib (NSC831453), MRTX-1133 (NSC836407), BAY2416964 (NSC825713), copanlisib (NSC816437), inavolisib (NSC800729), abemaciclib (NSC768073), osimertinib (NSC779217), entinostat (NSC756642), eltanexor (KPT-8602, NSC794443), venetoclax (NSC766270), ceralasertib (NSC777638), bortezomib (NSC756655), olaparib (NSC753686), talazoparib (NSC767125), alisertib (NSC759677), peposertib (NSC802822), gemcitabine (NSC613327), 5-fluorouracil (NSC19893), SN-38 (NSC673596), oxaliplatin (NSC266046), paclitaxel (NSC125973), and doxorubicin (NSC123127), were obtained from the National Cancer Institute (NCI) Developmental Therapeutics Program Chemical Repository. The FDA-approved anticancer drug set is available from the Developmental Therapeutics Program at https://dtp.cancer.gov/organization/dscb/obtaining/available plates.htm. […] The stock solutions were prepared in dimethyl sulfoxide (DMSO, Sigma-Aldrich, St. Louis, MO, cat. D2650), except for the platinum complexes which were prepared in saline (Quality Biological, Gaithersburg, MD, cat. 114-055-101), at 800-fold the tested concentration and stored at -70 degrees C prior to their use. All drugs and investigational agents were tested over a range starting from a high concentration at or near the clinical Cmax and decreasing in half-log increments. If the clinical Cmax for an agent had not been determined, the highest concentration tested was 10 microM.
Cell Culture. […]
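Note: spheroids exposed to drugs for seven days before readout; 100% = DMSO vehicle control wells.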

Compound | viability, T/C (compound alone 0.0316 µM) | viability, T/C (compound alone 0.1 µM)
CNC(=O)c1ccc(Nc2nc(OC3CCCC3)c3c(-c4ccc5nc(C)oc5c4)c[nH]c3n2)c(OC)c1 | 115, 108, 104, 145, 116 (2×), 93.8, 132, 127, 98.5, 97.8, 94.2% | 42.2, 45.6, 69.1, 71, 60.1, 62.8, 70.9, 62.4, 51.4, 62.6, 56%
CN1CCN(c2cc(C(=O)Nc3cc4cc(-c5cnn(C)c5)ccc4cn3)ccn2)CC1 | 105 (2×), 107, 113, 91.1, 98.2, 106, 103, 95, 104, 120, 109% | –
